# According to patent publication US20260258137A1 (HARBOUR BIOMED SHANGHAI, published 2026):
# Key:
# [1] = target: T1, Human TGFB1 (Novoprotein, CA59) (human, UniProt P01137 in part, biotinylated with EZ-Link Sulfo-NHS-LC-Biotin in the BLI experiment of Example 19; not biotinylated in the ELISA of Example 16); assay: ELISA, coated human TGFB1
# T1 construct: bought reagent; also called human TGFB1 protein; biotinylated human TGFB1
# [2] = target: T2, human PD-L1 on CHO-K1 cells (CHO-K1/hPD-L1, Nanjing Genscript, M00543) (human, UniProt Q9NZQ7); assay: flow cytometry on CHO-K1/hPD-L1 cells
# T2 construct: whole, on cells; also called CHO-K1 cells overexpressing human PD-L1; human PD-L1 on the cell surface
# [3] = target: T2, human PD-L1 on CHO-K1 cells …; assay: flow cytometry competition: biotin-hPD-1 binding to CHO-K1/hPD-L1 cells
# [4] = target: T3, human TGFB1 protein (R&D Systems, 240-B/F) (human, UniProt P01137 in part); assay: cell-based or functional assay
# [5] = target: T3, human TGFB1 protein (R&D Systems, …); assay: cell-based or functional assay; remark: listed apart in the source
# [6] = target: T1, Human TGFB1 (Novoprotein, CA59); assay: ELISA, coated human TGFB1; remark: listed apart in the source
# T1 sequence (P01137 279-390 limits assumed): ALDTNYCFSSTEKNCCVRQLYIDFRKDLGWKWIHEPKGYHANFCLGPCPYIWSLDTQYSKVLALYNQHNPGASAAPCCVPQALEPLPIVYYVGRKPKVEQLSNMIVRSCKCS
# [7] = target: T2, human PD-L1 on CHO-K1 cells …; assay: flow cytometry on CHO-K1/hPD-L1 cells; remark: listed apart in the source
# [8] = target: T1, Human TGFB1 (Novoprotein, CA59); assay: BLI (Octet), biotinylated hTGFB1 on SA sensor, 1:1 global fit
# [9] = target: T2, human PD-L1 on CHO-K1 cells …; assay: flow cytometry competition: biotin-hPD-1 binding to CHO-K1/hPD-L1 cells; remark: listed apart in the source
# [10] = target: T4, human PD-L1 protein with histidine tag (NovoProtein, C315) (human, UniProt Q9NZQ7 in part, limits assumed, biotinylated with EZ-Link Sulfo-NHS-LC-Biotin in the epitope competition experiments (Examples 8 and 20); not biotinylated in the affinity experiments); assay: BLI (Octet), fusion protein on AHC sensor, antigen 12.5-0.78 nM, 1:1 global fit
# T4 construct: bought reagent; also called biotinylated PD-L1 protein; not shown: histidine tag
Binder,EC50 [1] [nM],EC50 [2] [nM],MFI maximum value [2] [MFI],IC50 [3] [nM],inhibitory activity and IC50 against PR002466 and TGFB antibody [4] [times],"IC50 (nM), Smad SEAP reporter in HEK-Blue TGFB cells [5] [nM]","Maximum inhibition rate (%), Smad SEAP reporter in HEK-Blue TGFB cells [5] [%]",EC50 [6] [nM],OD Maximum value [6] [OD],EC50 [7] [nM],MFI maximum value [7] [MFI],Kd [8] [nM],koff [8] [s⁻¹],kon [8] [M⁻¹ s⁻¹],IC50 [9] [nM],Kd [10] [nM],koff [10] [s⁻¹],kon [10] [M⁻¹ s⁻¹]
"PR002247 (other, anti-PD-L1 / TGFBRII bifunctional fusion protein: PR000267 heavy chain (hIgG1) - (G4S)4 - human TGFBRII extracellular region 24-159) heavy: EVQLVESGGGLVQPGGSLRLSCAASGFTFSSYWMSWVRQAPGKGLEWVANIKQEGSEKYYGDSVKGRFTISRDNAKNSLYLQMNSLRAEETAVYYCARDRAVAGASDIWGQGTMVTVSSASTKGPSVFPLAPSSKSTSGGTAALGCLVKDYFPEPVTVSWNSGALTSGVHTFPAVLQSSGLYSLSSVVTVPSSSLGTQTYICNVNHKPSNTKVDKKV[letters of human IgG1 Fc omitted]GGGSGGGGSGGGGSGGGGSGIPPHVQKSVNNDMIVTDNNGAVKFPQLCKFCDVRFSTCDNQKSCMSNCSITSICEKPQEVCVAVWRKNDENITLETVCHDPKLPYHDFILEDAASPKCIMKEKKKPGETFFMCSCSSDECNDNIIFSEEYNTSNPD light: DIQMTQSPSTLSASVGDRVTITCRASQSISSWLAWYQQKPGKAPNLLIYKASSLETGVPSRFSGSGSGTEFTLTISSLQPDDFATYYCQQYYGYSRTFGQGTKVEIKRTVAAPSVFIFPPSDEQLKSGTASVVCLLNNFYPREAKVQWKVDNALQSGNSQESVTEQDSKDSTYSLSSTLTLSKADYEKHKVYACEVTHQGLSSPVTKSFNRGEC",1.33,0.852,43400,0.399,,,,,,,,,,,,,,
"PR001902 (other, anti-PD-L1 / TGFBRII bifunctional fusion protein: PR000265 heavy chain (hIgG1) fused without linker to human TGFBRII extracellular region 24-159) heavy: EVQLVESGGGLVQPGGSLRLSCAASGFTFSSYWMSWVRQAPGKGLEWVANIKQEGSEKYYVDSVKGRFTISRDNAKNSLYLQMNSLRAEDTAVYYCARDRAVAGAFDIWGQGTMVTVSSASTKGPSVFPLAPSSKSTSGGTAALGCLVKDYFPEPVTVSWNSGALTSGVHTFPAVLQSSGLYSLSSVVTVPSSSLGTQTYICNVNHKPSNTKVDKKV[letters of human IgG1 Fc omitted]PPHVQKSVNNDMIVTDNNGAVKFPQLCKFCDVRFSTCDNQKSCMSNCSITSICEKPQEVCVAVWRKNDENITLETVCHDPKLPYHDFILEDAASPKCIMKEKKKPGETFFMCSCSSDECNDNIIFSEEYNTSNPD light: DIQMTQSPSTLSASVGDRVTVTCRASQSIYIWLAWYQQKPGKAPNLLIYKASSLETGVPSRFSGSGSGTEFTLTISSLQPDDFATYYCQQYYGSSRTFGQGTKVEIKRTVAAPSVFIFPPSDEQLKSGTASVVCLLNNFYPREAKVQWKVDNALQSGNSQESVTEQDSKDSTYSLSSTLTLSKADYEKHKVYACEVTHQGLSSPVTKSFNRGEC",,,,,8,0.0103,112,1.49,1.84,0.515,45400,0.0781,0.00025,3.19e+06,0.311,0.0605,4.5e-05,744000

# Like-named read-outs stand apart in the source and are kept apart here.
